Experimental data: PubChem BioAssay AID588342 (National Center for Advancing Translational Sciences (NCATS), 2011)
Hit rate of the full screen: of about 360,000 compounds, about 25,000 (6.9%) were called active. The inconclusive results got no clear call from the source; some entries with a clear call stand among them for comparison. Calls follow the shape of the dose curve; as a rule, active = well fitted inhibition curve with a large enough effect; inconclusive = small, poorly fitted or top-dose-only effect; inactive = flat fitted curve, though single readings scatter. A potency beside an inconclusive call is a rough fit, not a confirmed value.

Molecular target: Luciferin 4-monooxygenase (Photinus pyralis) (UniProt P08659)
UniProt P08659, sequence (P08659 whole entry, looked up): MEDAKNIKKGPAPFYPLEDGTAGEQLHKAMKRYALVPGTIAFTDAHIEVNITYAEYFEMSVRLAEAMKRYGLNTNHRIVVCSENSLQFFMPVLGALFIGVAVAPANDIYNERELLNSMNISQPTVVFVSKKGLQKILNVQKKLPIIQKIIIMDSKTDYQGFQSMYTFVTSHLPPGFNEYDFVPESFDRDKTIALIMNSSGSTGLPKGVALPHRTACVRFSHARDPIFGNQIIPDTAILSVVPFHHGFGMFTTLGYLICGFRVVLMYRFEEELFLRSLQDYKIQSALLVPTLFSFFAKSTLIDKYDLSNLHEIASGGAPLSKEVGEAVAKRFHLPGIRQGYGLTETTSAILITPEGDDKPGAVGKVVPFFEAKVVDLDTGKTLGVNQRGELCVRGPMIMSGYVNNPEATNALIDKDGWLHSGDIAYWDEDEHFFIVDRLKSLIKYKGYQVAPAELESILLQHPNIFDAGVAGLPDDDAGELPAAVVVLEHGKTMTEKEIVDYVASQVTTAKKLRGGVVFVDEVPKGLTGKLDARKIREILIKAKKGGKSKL
Assay: qHTS profiling assay for firefly luciferase inhibitor/activator using purifed enzyme and Km concentrations of substrates (counterscreen for miR-21 project); also: nearly all actives have a fitted effect of over 55% in size;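 as to activity change, negative = inhibition: plate controls were vehicle for no effect and reference inhibitor for full effect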
Settings: purified FLuc, luminescence inhibition; activity change, negative = inhibition: at 57.5 µM (top of the series)
In short: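 Purified P. pyralis luciferase (10nM final) with 10uM D-luciferin and 10uM ATP (Km levels) in 50mM Tris acetate pH 7.5, 10mM Mg acetate, 0.01% Tween-20, 0.05% BSA; qHTS 6-point titration, ~60 µM downward; luminescence read.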
Potency is read from the fitted curve at half-maximal effect; tags tell the direction and shape of the fitted curve.

SMILES | Potency | activity change, negative = inhibition
CCCOC1CCCN(C(=O)CCc2nnc(CCCCc3ccccc3)o2)C1 (configuration not stated) | inconclusive: 26.9 µM [inhibitor, partial curve, poor fit] | –
COc1ccc(CNC(=O)CN(c2cc(C)cc(C)c2)S(=O)(=O)c2c(C)[nH]c(=O)[nH]c2=O)cc1 | inconclusive: 15.1 µM [inhibitor, partial curve, poor fit] | –
O=C(NC1CCCC1)c1cccc2c1C(=O)c1ccc(N3CCCCC3)cc1S2(=O)=O | inconclusive: 10 µM [inhibitor, partial curve, poor fit] | –
COc1ccccc1C(=O)NC(CCSC)C(=O)OCC(=O)N1CCCC1=O (configuration not stated) | – | inactive: -0.927%
CCOC(=O)C1(Cc2ccccc2)CCCN(C2CCCC2)C1 (configuration not stated) | – | inactive: 1.04%
Cc1sc(NC(=O)c2ccco2)c(C(c2cccnc2)N2CCCC2)c1C (configuration not stated) | inconclusive: 30.1 µM [inhibitor, partial curve, poor fit] | –
COc1ccc(/C=N/NC(=O)c2[nH]c3ccc(C)cc3c2-c2ccccc2)c(C(=O)O)c1OC | inconclusive: 23.9 µM [inhibitor, single point] | –
O=C(Nc1ccc(Br)cc1F)c1ncoc1-c1ccco1 | – | inactive: -6.71%
O=C(Cc1csc(NC(=O)Nc2cccc(Cl)c2)n1)NCc1cccnc1 | active: 6.75 µM | –
C=CCOc1ccc(C(=O)Nc2ccccc2C(=O)NCc2cccnc2)cc1 | inconclusive: 26.9 µM [inhibitor, single point] | –
O=C(Nc1ccccc1Cl)c1ccn[nH]1 | inconclusive: 26.9 µM [inhibitor, single point] | –
Cc1ccc(C(=O)N2CCCC(C(=O)c3ccc(Oc4ccccc4)cc3)C2)cn1 (configuration not stated) | – | inactive: 0.0871%
O=C(/C=C/Nc1ccc(OC(F)(F)F)cc1)C(F)(F)F | inconclusive: 16.9 µM [inhibitor, partial curve] | –
COc1ccc(OC)c(C2CC(=O)N3CN(c4ccc(C)c(Cl)c4)CSC3=C2C#N)c1 (configuration not stated) | inconclusive: 37.9 µM [inhibitor, single point] | –
CCc1ccc2oc(C(=O)Nc3nonc3CC)c(C)c2c1 | inconclusive: 5.36 µM [inhibitor, full curve] | –
CCN(CC)CCN(Cc1cc2ccc(C)cc2[nH]c1=O)C(=O)Nc1ccc(Cl)cc1 | inconclusive: 30.1 µM [inhibitor, single point] | –
Cn1cnc([N+](=O)[O-])c1Oc1ccccc1 | – | inactive: 2.22%
O=C(CSc1nc2cc(Cl)ccc2s1)Nc1cccc(S(=O)(=O)N2CCOCC2)c1 | inconclusive: 37.9 µM [inhibitor, partial curve, poor fit] | –
Cc1cccc(NC(=O)CSCC(=O)Nc2nnc(C3CC3)s2)c1 | – | inactive: -3.15%
Cc1cc(-c2ccccc2)n(-c2ccccc2)n1 | active: 15.1 µM | –
COc1cccc(C2=CC(c3cccc(OC)c3OC)n3nnnc3N2)c1 (configuration not stated) | active: 23.9 µM | –
O=C(N/N=C/c1ccco1)c1ccccc1OCc1ccc(Br)cc1 | inconclusive: 12 µM [inhibitor, partial curve, poor fit] | –
N#C/C(C(=O)Oc1ccccc1)=C1/Nc2ccccc2-c2ccccc21 | – | inactive: 1.13%
Cc1noc(C)c1CSc1nc2ccccc2c(=O)n1-c1ccccc1 | – | inactive: 2.43%

SMILES | Potency | activity change, negative = inhibition
COc1cccc(C(=O)/C=C2\Sc3ccccc3N2C)c1 | active: 1.07 µM | –
CC(=O)Nc1ccc(S(=O)(=O)Nc2nc3cc4c(cc3nc2Cl)OCCO4)cc1 | active: 19 µM | –
CN(CC(=O)Nc1cccc(F)c1)C(=O)c1ccc2c(c1)OCCO2 | inconclusive: 16.9 µM [inhibitor, single point] | –
CCC(=O)N/N=C/c1ccc(-c2ccc(Cl)cc2)o1 | active: 15.1 µM | –
CC(=O)Oc1c(/C=C(\C#N)C(N)=O)[nH]c2ccccc12 | inconclusive: 26.9 µM [inhibitor, partial curve, poor fit] | –
O=S(=O)(Nc1nc2c(s1)CCCC2)c1ccc(F)cc1 | inconclusive: 30.1 µM [inhibitor, single point] | –
Cc1ccc(SC/C(O)=C(\C#N)c2nc3ccccc3s2)cc1 | inconclusive: 23.9 µM [inhibitor, single point] | –
CCc1ccccc1NC(=O)c1ccc2c(c1)N(Cc1cc(C)ccc1C)C(=O)c1ccccc1S2(=O)=O | – | inactive: -1.84%
Cc1cc(/C=C2\SC(=S)NC2=O)c(C)[nH]1 | active: 10.7 µM | –
S=C(c1ccc(N2CCCC2)cc1)N1CCCCC1 | inconclusive: 23.9 µM [inhibitor, single point] | –
CC(C)CN(C(=O)CCC(=O)OCC(=O)N(C)c1ccccc1)c1c(N)n(CC(C)C)c(=O)[nH]c1=O | – | inactive: -0.359%
O=C(Nc1ccccc1)c1ccc(Br)c(S(=O)(=O)N2CCCCC2)c1 | inconclusive: 37.9 µM [inhibitor, single point] | –
COc1ccc(C(=O)Nn2cnc3ccccc3c2=O)c(OC)c1 | inconclusive: 19 µM [inhibitor, partial curve, poor fit] | –
Cc1sc2ncn(-c3ccccc3)c(=O)c2c1C | inconclusive: 37.9 µM [inhibitor, partial curve, poor fit] | –
CC(=O)Nc1cccc(OC(=O)COc2ccc(Br)cc2)c1 | inconclusive: 23.9 µM [inhibitor, single point] | –
CNC(=O)c1ccsc1NC(=O)C1CCN(S(=O)(=O)c2ccc(Cl)s2)CC1 | – | inactive: 13.3%
Cc1cccc(C(=O)NC2CCCCCCC2)c1 | active: 12 µM | –
N#C/C(=C/c1ccc([N+](=O)[O-])cc1)C(=O)Nc1ccccc1O | inconclusive: 8.49 µM [inhibitor, partial curve, poor fit] | –
O=C(CSc1nnc(-c2ccc(F)cc2)o1)Nc1ccc(S(=O)(=O)N2CCCCCC2)cc1 | – | inactive: 1.22%
CC1=[N+](C)N(c2ccccc2)C(=O)C1N=C/C=C/c1ccccc1 (configuration not stated) | active: 15.1 µM | –
Nc1nc2ccccc2n1/N=C/c1ccc2c(c1)OCO2 | active: 10.7 µM | –
Cc1ccc(-c2nc3ncccc3o2)cc1NC(=O)c1ccc(-c2cccc(Cl)c2C)o1 | – | inactive: -15%
O=C(CSc1nnc(-c2ccccc2)n1Cc1ccco1)Nc1ccc2c(c1)OCCO2 | inconclusive: 26.9 µM [inhibitor, single point] | –
